Source: ChEMBL document CHEMBL5606460, “ASAP - DENV-2 NS2B-NS3 protease fluorescence single point” (2024)
Screen size: about 2,000 compounds; about 110 (5.5%) showed an effect of 50% or more. This is one part of the list.

Molecular target: Genome polyprotein (dengue virus type 2) (UniProt P29990)
[1] = Thailand/16681/1984, Concentration 25.0 uM, Number of replicates 1.0

Question: How did the inhibition [1] turn out when O=Cc1ccc(N2CCC(C(=O)N3CCCC[C@H]3C(F)(F)F)CC2)cc1 was run?
Answer: The inhibition was 16.8%.

Question: Which inhibition (Thailand/16681/1984, Concentration 49.95 uM, Number of replicates 2.0, Standard deviation 5.517273159530972 %) does the source give for Clc1cc(Cl)c2cccnc2c1 here?
Answer: Its inhibition is -6.96%.

Question: And the inhibition (Thailand/16681/1984, Concentration 99.9 uM, Number of replicates 2.0, Standard deviation 6.335774061331812 %)?
Answer: The inhibition was -7.46%.

Question: For NCc1ccc(C[C@H](NC(=O)c2ccccc2)C(=O)N2CCCCC2)cc1, which inhibition (Thailand/16681/1984, Concentration 49.5 uM, Number of replicates 2.0, Standard deviation 0.17896696164662676 %) is on record?
Answer: The inhibition was 0.311%.

Question: And the inhibition (Thailand/16681/1984, Concentration 99.01 uM, Number of replicates 2.0, Standard deviation 0.22162768560798987 %)?
Answer: The inhibition was 1.81%.

Question: And the inhibition (Thailand/16681/1984, Concentration 198.0 uM, Number of replicates 2.0, Standard deviation 1.4421407385459897 %)?
Answer: Its inhibition is 4.23%.

Question: For O=Cc1ccc(N2CCC(C(=O)NCc3ccc(Br)s3)CC2)cc1, which inhibition [1] is on record?
Answer: Its inhibition is 12.4%.

Question: Which results are given for Cc1cc(CO)c2cccc(CC(=O)Nc3cc(C)on3)c2n1?
Answer: inhibition (Thailand/16681/1984, Concentration 49.95 uM, Number of replicates 2.0, Standard deviation 0.056769444720657654 %): 98.7%; inhibition (Thailand/16681/1984, Concentration 99.9 uM, Number of replicates 2.0, Standard deviation 0.01177144620169866 %): 99.4%

Question: Which inhibition [1] does the source give for O=Cc1ccc(N2CCC(C(=O)N3CCN(c4ccccc4[N+](=O)[O-])CC3)CC2)cc1 here?
Answer: The inhibition was 13.5%.

Question: Which inhibition [1] does the source give for O=Cc1ccc(N2CCC(C(=O)Nc3cccc(C(F)(F)F)n3)CC2)cc1 here?
Answer: The inhibition was 13.5%.

Question: Which inhibition [1] does the source give for O=Cc1ccc(N2CCC(C(=O)NCCc3csc(-c4ccncc4)n3)CC2)cc1 here?
Answer: The inhibition was 14.3%.

Question: Which results are given for N#Cc1ccc(C[C@H](NC(=O)c2ccccc2)C(=O)NCCCCNC(=N)N)cc1?
Answer: inhibition (Thailand/16681/1984, Concentration 49.5 uM, Number of replicates 2.0, Standard deviation 0.6326801671633419 %): -5.12%; inhibition (Thailand/16681/1984, Concentration 99.01 uM, Number of replicates 2.0, Standard deviation 1.2914777248245206 %): -4.14%; inhibition (Thailand/16681/1984, Concentration 198.0 uM, Number of replicates 2.0, Standard deviation 0.45252363179091937 %): -1.98%

Question: With O=Cc1ccc(N2CCC(C(=O)N3CCC(Cc4ccc(Br)cc4)CC3)CC2)cc1 as the compound, how does the inhibition [1] read?
Answer: Its inhibition is -3.91%.

Question: How did the inhibition (Thailand/16681/1984, Concentration 49.5 uM, Number of replicates 2.0, Standard deviation 0.04775136783847868 %) turn out when O=S(=O)(Nc1ccc(Cl)cc1)c1ccc(Oc2ccccc2Cl)cc1 was run?
Answer: Its inhibition is 12.2%.

Question: What about the inhibition (Thailand/16681/1984, Concentration 99.01 uM, Number of replicates 2.0, Standard deviation 0.32853232391890236 %) of the same compound?
Answer: Its inhibition is 22.7%.

Question: And the inhibition (Thailand/16681/1984, Concentration 198.0 uM, Number of replicates 2.0, Standard deviation 1.060565762839157 %)?
Answer: The inhibition was 44.5%.

Question: With Cc1cnccc1NC(=O)c1cccc(-n2cnnn2)c1 as the compound, how does the inhibition (Thailand/16681/1984, Concentration 49.5 uM, Number of replicates 2.0, Standard deviation 0.2503352923405826 %) read?
Answer: The inhibition was -0.163%.

Question: What about the inhibition (Thailand/16681/1984, Concentration 99.01 uM, Number of replicates 2.0, Standard deviation 0.8335238140461166 %) of the same compound?
Answer: The inhibition was 0.5%.

Question: What about the inhibition (Thailand/16681/1984, Concentration 198.0 uM, Number of replicates 2.0, Standard deviation 0.8631931670807014 %) of the same compound?
Answer: The inhibition was 0.333%.

Question: Which inhibition (Thailand/16681/1984, Concentration 49.5 uM, Number of replicates 2.0, Standard deviation 2.112040450454514 %) does the source give for Cc1cnccc1NC(=O)c1c(S(C)(=O)=O)cnn1C here?
Answer: Its inhibition is -2.87%.

Question: And the inhibition (Thailand/16681/1984, Concentration 99.01 uM, Number of replicates 2.0, Standard deviation 0.7412991706842835 %)?
Answer: The inhibition was -3.65%.

Question: What about the inhibition (Thailand/16681/1984, Concentration 198.0 uM, Number of replicates 2.0, Standard deviation 0.3762916153649011 %) of the same compound?
Answer: Its inhibition is -2.33%.

Question: How did the inhibition (Thailand/16681/1984, Concentration 49.95 uM, Number of replicates 2.0, Standard deviation 0.842601818478522 %) turn out when CC(=O)N[C@@H](CCCCN)C(=O)Nc1ccccc1Cc1cccc2c(CO)cc(C)nc12 was run?
Answer: The inhibition was -5.54%.

Question: And the inhibition (Thailand/16681/1984, Concentration 99.9 uM, Number of replicates 2.0, Standard deviation 0.16339684106206548 %)?
Answer: Its inhibition is 1.8%.

Question: For Cc1cc(CO)c2cccc(Cc3cccc(C(=O)N4CCCNCC4)c3)c2n1, which inhibition (Thailand/16681/1984, Concentration 49.95 uM, Number of replicates 2.0, Standard deviation 0.42616060945996115 %) is on record?
Answer: The inhibition was -5.55%.

Question: What about the inhibition (Thailand/16681/1984, Concentration 99.9 uM, Number of replicates 2.0, Standard deviation 0.4513131743016865 %) of the same compound?
Answer: The inhibition was 6.88%.

Question: Which results are given for Cc1cnccc1NC(=O)c1nn(C)c2c1CCCC2?
Answer: inhibition (Thailand/16681/1984, Concentration 49.5 uM, Number of replicates 2.0, Standard deviation 2.6774115947837758 %): 5.71%; inhibition (Thailand/16681/1984, Concentration 99.01 uM, Number of replicates 2.0, Standard deviation 2.8074062997576847 %): 3.98%; inhibition (Thailand/16681/1984, Concentration 198.0 uM, Number of replicates 2.0, Standard deviation 1.1102521767864677 %): 3.95%

Question: Which inhibition [1] does the source give for CC1(C)C[C@]1(CNC(=O)C1CCN(c2ccc(C=O)cc2)CC1)c1ccccc1 here?
Answer: The inhibition was 12.2%.

Question: Which inhibition (Thailand/16681/1984, Concentration 49.5 uM, Number of replicates 2.0, Standard deviation 0.4660664257418339 %) does the source give for CNC(=O)c1cccc(C(=O)Nc2ccncc2C)n1 here?
Answer: Its inhibition is -1.53%.

Question: What about the inhibition (Thailand/16681/1984, Concentration 99.01 uM, Number of replicates 2.0, Standard deviation 1.0947141510270475 %) of the same compound?
Answer: The inhibition was -0.505%.

Question: And the inhibition (Thailand/16681/1984, Concentration 198.0 uM, Number of replicates 2.0, Standard deviation 0.10892945720707287 %)?
Answer: Its inhibition is 0.74%.

Question: With CCn1ccnc(N2C[C@@H](O)[C@H](c3c[nH]c4ccccc34)C2)c1=O as the compound, how does the inhibition (Thailand/16681/1984, Concentration 49.5 uM, Number of replicates 2.0, Standard deviation 0.09598084952646493 %) read?
Answer: Its inhibition is 9.07%.

Question: What about the inhibition (Thailand/16681/1984, Concentration 99.01 uM, Number of replicates 2.0, Standard deviation 0.03676958499048013 %) of the same compound?
Answer: The inhibition was 18.8%.

Question: What about the inhibition (Thailand/16681/1984, Concentration 198.0 uM, Number of replicates 2.0, Standard deviation 0.07114927508299852 %) of the same compound?
Answer: The inhibition was 33.4%.

Question: CN(CC(N)=O)Cc1cc(=O)c2cccc(Cl)c2[nH]1 was tested. Which inhibition (Thailand/16681/1984, Concentration 49.95 uM, Number of replicates 2.0, Standard deviation 6.015777148585942 %) did it give?
Answer: Its inhibition is -8.14%.

Question: What about the inhibition (Thailand/16681/1984, Concentration 99.9 uM, Number of replicates 2.0, Standard deviation 6.996333020085958 %) of the same compound?
Answer: The inhibition was -8.34%.

Question: For C[C@@H](CS(C)(=O)=O)NC(=O)c1cc(Cl)ccc1NS(=O)(=O)c1ccc(Oc2ccccc2Cl)cc1, which inhibition (Thailand/16681/1984, Concentration 49.5 uM, Number of replicates 2.0, Standard deviation 0.5989303195749703 %) is on record?
Answer: Its inhibition is 51.1%.

Question: And the inhibition (Thailand/16681/1984, Concentration 99.01 uM, Number of replicates 2.0, Standard deviation 0.4213875631597994 %)?
Answer: The inhibition was 57%.

Question: And the inhibition (Thailand/16681/1984, Concentration 198.0 uM, Number of replicates 2.0, Standard deviation 0.24651523106627876 %)?
Answer: Its inhibition is 43%.
